The record followed here is PMC4336329 (PLoS ONE, 2015).

SMILES strings stand for the structures. About 14,000 (4.5%) of roughly 310,000 compounds showed an effect of 50% or more. Effects have a minus sign here. The list shows a part of the results.
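Also: peak tail current of the secondary pulse compared with the same well before compound.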

Chain of human ether-à-go-go-related gene (hERG) potassium channel (Q12809 whole entry, looked up): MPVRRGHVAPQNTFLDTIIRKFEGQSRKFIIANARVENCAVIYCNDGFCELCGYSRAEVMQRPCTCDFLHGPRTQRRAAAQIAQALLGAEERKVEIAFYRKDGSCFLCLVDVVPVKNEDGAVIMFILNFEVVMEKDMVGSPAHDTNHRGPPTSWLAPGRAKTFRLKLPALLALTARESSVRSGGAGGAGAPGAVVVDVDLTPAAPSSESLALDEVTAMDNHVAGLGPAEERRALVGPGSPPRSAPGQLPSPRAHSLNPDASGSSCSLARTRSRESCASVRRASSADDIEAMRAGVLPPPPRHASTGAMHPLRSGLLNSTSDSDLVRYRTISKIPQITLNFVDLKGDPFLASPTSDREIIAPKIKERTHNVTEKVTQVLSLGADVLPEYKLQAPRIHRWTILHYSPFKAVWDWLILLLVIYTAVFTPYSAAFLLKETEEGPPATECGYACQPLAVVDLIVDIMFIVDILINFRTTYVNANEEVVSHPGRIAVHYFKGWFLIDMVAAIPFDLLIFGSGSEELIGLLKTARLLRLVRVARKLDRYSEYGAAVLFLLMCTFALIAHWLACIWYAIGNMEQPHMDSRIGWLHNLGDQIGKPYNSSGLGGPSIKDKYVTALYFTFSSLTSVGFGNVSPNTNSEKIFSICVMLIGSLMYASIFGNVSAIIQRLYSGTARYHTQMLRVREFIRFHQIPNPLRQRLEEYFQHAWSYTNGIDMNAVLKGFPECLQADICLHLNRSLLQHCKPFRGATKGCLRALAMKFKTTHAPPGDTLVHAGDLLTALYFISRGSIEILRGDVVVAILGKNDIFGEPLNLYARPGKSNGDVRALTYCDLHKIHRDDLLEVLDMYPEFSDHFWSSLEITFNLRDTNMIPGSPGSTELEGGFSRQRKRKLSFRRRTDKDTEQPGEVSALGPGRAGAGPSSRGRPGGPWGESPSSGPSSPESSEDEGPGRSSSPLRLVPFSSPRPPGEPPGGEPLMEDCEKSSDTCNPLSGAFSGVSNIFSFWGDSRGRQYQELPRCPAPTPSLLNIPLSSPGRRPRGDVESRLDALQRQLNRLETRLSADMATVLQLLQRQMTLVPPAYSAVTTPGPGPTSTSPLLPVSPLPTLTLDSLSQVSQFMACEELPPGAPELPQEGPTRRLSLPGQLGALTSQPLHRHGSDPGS

The experiment concerns the target human ether-à-go-go-related gene (hERG) potassium channel (human, UniProt Q12809). The experiment in a line: primary screen, population patch clamp on CHO cells stably expressing hERG.
Regarding `O=C(COC(=O)CSc1ccc2ccccc2c1)Nc1ccccc1OC(F)F`, the “hERG current change (%, negative = inhibition) at 10uM” value is -4.2%.

For the molecule `Cc1cccc(NC(=O)CCc2ccccc2)c1`, the “hERG current change (%, negative = inhibition) at 10uM” value is recorded as -1.13%.

Take `C#CCn1cnc2c(oc3ccccc32)c1=O`: the “hERG current change (%, negative = inhibition) at 10uM” value was -0.773%.

`COc1ccc(Cl)cc1NC(=O)CN(C)C(=O)c1cc(-c2ccncc2)nc2ccccc12`: the “hERG current change (%, negative = inhibition) at 10uM” value is recorded as -8.15%.

Consider `CCc1c(C)c2nncn2[nH]c1=O`, for which the “hERG current change (%, negative = inhibition) at 10uM” value is 0.209%.

`Cc1ccc(S(=O)(=O)N2CCCC(C(=O)NCCC(C)C)C2)cc1` (stereo not drawn): the “hERG current change (%, negative = inhibition) at 10uM” value was 20%.

Turning to `Cc1coc(C)c1C(=O)CC1(O)C(=O)N(C)c2ccc(Cl)cc21` (stereo not drawn), the “hERG current change (%, negative = inhibition) at 10uM” value came to 10.4%.

With `COC(=O)c1cc(S(=O)(=O)N2CCN(c3ccccc3F)CC2)c[nH]1`, the “hERG current change (%, negative = inhibition) at 10uM” value amounted to 4.27%.

With `FC(F)(F)Oc1ccc(-c2cn3cccnc3n2)cc1`, the “hERG current change (%, negative = inhibition) at 10uM” value is -3.79%.

Consider `CC(C)(C)NC(=O)c1ccc2c(c1)N(CC(=O)N1CCCC1)C(=O)C(C)(C)O2`, for which the “hERG current change (%, negative = inhibition) at 10uM” value came out at 11.2%.

As to `CCOC(=O)N1CCN(C(=O)c2ccc(N(Cc3ccc(Cl)cc3)S(C)(=O)=O)cc2)CC1`, the “hERG current change (%, negative = inhibition) at 10uM” value is given as -15.3%.

Consider `CN(C)/C=C(\C#N)C(=O)Nc1ccccc1`, for which the “hERG current change (%, negative = inhibition) at 10uM” value turned out to be 14%.

`Cc1cn([C@@H](CCCCNC(=O)OC(C)(C)C)C(=O)NCCCCCCCCCCC(=O)N2CCN(C(=O)OC(C)(C)C)CC2)nn1`: the “hERG current change (%, negative = inhibition) at 10uM” value is on record as -4.39%.

For `COc1ccc(CCNS(=O)(=O)c2cccc(C(=O)O)c2)cc1OC`, the “hERG current change (%, negative = inhibition) at 10uM” value was 16.2%.

For `CCCc1cc(=O)[nH]c(SCC(=O)c2c(C)[nH]c3ccccc23)n1`, the “hERG current change (%, negative = inhibition) at 10uM” value is listed as -6.2%.

Consider `CCS(=O)(=O)N1N=C(c2cccs2)CC1c1cc2cc(C)ccc2nc1Cl` (stereo not drawn), for which the “hERG current change (%, negative = inhibition) at 10uM” value is on record as -21%.

On to `COc1ccc(OC)c(NC(=O)COc2ccc3c(c2)CCC3)c1`, for which the “hERG current change (%, negative = inhibition) at 10uM” value is 14.3%.

For the molecule `CCC(=O)NCCCOc1ccccc1`, the “hERG current change (%, negative = inhibition) at 10uM” value is recorded as -5%.

With `Cc1ccc(CNS(=O)(=O)c2ccc3c(c2)C(C)(C)C(=O)N3C)cc1`, the “hERG current change (%, negative = inhibition) at 10uM” value is -4.42%.

Take `COc1ccc(NC(=O)CSc2nnc(Cn3c(=O)sc4ccccc43)n2C)cc1OC`: the “hERG current change (%, negative = inhibition) at 10uM” value was -4.51%.

For `COCCN(C(=O)c1ccc(OCC(C)C)cc1)c1c(N)n(Cc2ccccc2)c(=O)[nH]c1=O`, the “hERG current change (%, negative = inhibition) at 10uM” value was 13.4%.

`COc1ccc(/C=N/NC(=O)c2ccc(Br)cc2)cc1Cn1cc(Cl)cn1`: the “hERG current change (%, negative = inhibition) at 10uM” value is given as -16.6%.

For the molecule `COC(=O)c1c(N2C(=O)CC(Sc3ncccc3C(=O)O)C2=O)sc(C)c1C` (stereo not drawn), the “hERG current change (%, negative = inhibition) at 10uM” value stood at 5.89%.

With `COc1ccc(N2CC(C(=O)OCC(=O)Nc3cc(C)on3)CC2=O)cc1` (stereo not drawn), the “hERG current change (%, negative = inhibition) at 10uM” value is listed as 5.27%.

Turning to `O=C(NC(=S)Nc1ccc(N2CCOCC2)cc1)c1ccccc1`, the “hERG current change (%, negative = inhibition) at 10uM” value is -9.69%.

Turning to `O=C(Nc1cccc(C(=O)NC2CCCC2)c1)c1ccccc1`, the “hERG current change (%, negative = inhibition) at 10uM” value was -8.5%.

Take `COc1ccc(C2=NN(C(=O)c3ccco3)C(c3cc4ccccc4nc3Cl)C2)cc1` (stereo not drawn): the “hERG current change (%, negative = inhibition) at 10uM” value is recorded as 8.45%.

On to `COc1ccc(N(C)C(=O)CC2(CC(=O)O)CCCCC2)cc1`, for which the “hERG current change (%, negative = inhibition) at 10uM” value is reported as -3.61%.

Regarding `CCOc1cc(/C=N/Nc2ccccc2Cl)ccc1OCC(=O)O`, the “hERG current change (%, negative = inhibition) at 10uM” value amounted to 12.4%.

Consider `O=C(COC(=O)CNC(=O)C1CCCCC1)Nc1ccc2c(c1)OCCO2`, for which the “hERG current change (%, negative = inhibition) at 10uM” value stood at 14%.

Turning to `Cc1cc2ncc(-c3ccc(Cl)cc3)cn2n1`, the “hERG current change (%, negative = inhibition) at 10uM” value came out at 17.5%.

As to `O=C(N/N=C/C(Br)=C/c1ccccc1)c1n[nH]c2c1CCC2`, the “hERG current change (%, negative = inhibition) at 10uM” value is on record as -5.4%.

With `CCCCN(C)C1CCN(C(=S)Nc2ccc(OCC)cc2)CC1`, the “hERG current change (%, negative = inhibition) at 10uM” value is recorded as -76.7%.

As to `CN(CC(=O)Nc1cccc(F)c1)C(=O)CCCc1nc2ccccc2c(=O)[nH]1`, the “hERG current change (%, negative = inhibition) at 10uM” value is listed as -1.44%.

`O=C(c1ccsc1)N1CCCC(Nc2ccc(F)c(F)c2)C1` (stereo not drawn): the “hERG current change (%, negative = inhibition) at 10uM” value is on record as -18.3%.

For `O=C(COC(=O)c1nc(Cl)ccc1Cl)Nc1ccc2c(c1)OCO2`, the “hERG current change (%, negative = inhibition) at 10uM” value is -3.62%.

`CCOc1ccc(CCNC(=O)CCC(=O)N2CCSc3ccccc32)cc1OCC`: the “hERG current change (%, negative = inhibition) at 10uM” value is -2.52%.

For the molecule `CC(=O)CSc1nnc2c3ccccc3nc(C(C)(C)C)n12`, the “hERG current change (%, negative = inhibition) at 10uM” value is recorded as -11.9%.

In the case of `COc1ccc2c(c1)[nH]c1c(=O)n(N)cnc12`, the “hERG current change (%, negative = inhibition) at 10uM” value is reported as 4.25%.

For the molecule `Cc1ccc(Cl)cc1N1CCN(C(=O)C2CCN(S(=O)(=O)c3cccnc3)CC2)CC1`, the “hERG current change (%, negative = inhibition) at 10uM” value is given as -46%.

With `Br.COc1ccc2c(c1)nc(SCC(=O)c1ccc(Br)s1)n2C`, the “hERG current change (%, negative = inhibition) at 10uM” value is listed as -0.582%.

As to `COc1cc2cc(Br)cc(Br)c2nc1C`, the “hERG current change (%, negative = inhibition) at 10uM” value is given as -12.6%.

On to `O=C(Nc1nnc(C2CC2)s1)c1cc(Cl)sc1Cl`, for which the “hERG current change (%, negative = inhibition) at 10uM” value was found to be 20%.

`CCn1c(Oc2ccccc2F)nc2c1c(=O)n(C)c(=O)n2C`: the “hERG current change (%, negative = inhibition) at 10uM” value amounted to 13.3%.

`Cc1ccc(CNC(=S)Nc2ccc(OC(F)F)cc2C)cc1`: the “hERG current change (%, negative = inhibition) at 10uM” value amounted to 8.43%.

`Cc1sc2ncnc(NCC3COc4ccccc4O3)c2c1C` (stereo not drawn): the “hERG current change (%, negative = inhibition) at 10uM” value was -13.6%.

Consider `COc1cc(NC(=O)COC(=O)Cn2cnc3c2c(=O)n(C)c(=O)n3C)cc(OC)c1`, for which the “hERG current change (%, negative = inhibition) at 10uM” value was 1.05%.

Turning to `N#Cc1ccc(NC(=O)N2CCC(c3nc4c(nnn4Cc4cccc(Cl)c4)c(=O)[nH]3)CC2)cc1`, the “hERG current change (%, negative = inhibition) at 10uM” value turned out to be 3.5%.

In the case of `Cc1cccc(C(=O)N2CCCC(CCC(=O)N3CCN(c4ccccn4)CC3)C2)c1` (stereo not drawn), the “hERG current change (%, negative = inhibition) at 10uM” value was -74.5%.

For the molecule `COc1cccc(CNc2ccc3[nH]c(=O)[nH]c3c2)c1OCc1ccccc1Cl`, the “hERG current change (%, negative = inhibition) at 10uM” value is 21.9%.

With `CCOC(=O)c1ccc(N/C=C/C(=O)c2ccco2)cc1`, the “hERG current change (%, negative = inhibition) at 10uM” value amounted to 9.76%.

As for `CC(C)CCN1CC(C(=O)NC(C)C)CC1=O` (stereo not drawn), the “hERG current change (%, negative = inhibition) at 10uM” value was determined as 13%.

`C=CCn1c(SCCC)nc2sc3c(c2c1=O)CCc1ccccc1-3`: the “hERG current change (%, negative = inhibition) at 10uM” value amounted to 14.3%.

For the molecule `N#Cc1ccc(Nc2nc(-c3ccc(O)cc3O)cs2)cc1C(F)(F)F`, the “hERG current change (%, negative = inhibition) at 10uM” value was 11.9%.

In the case of `COC(=O)COc1ccc(NC(=O)Cn2nc(-c3ccccc3)c3ccccc3c2=O)cc1`, the “hERG current change (%, negative = inhibition) at 10uM” value is 7.62%.

Regarding `CCn1c(CNS(=O)(=O)c2ccc(Br)cc2)nnc1SC`, the “hERG current change (%, negative = inhibition) at 10uM” value was 14.3%.

Regarding `CCCn1c(CCNc2nc(-c3ccc(OC)cc3)cs2)nc2ccccc21`, the “hERG current change (%, negative = inhibition) at 10uM” value is listed as -9.91%.
